# Where a SMILES comes first, the peptide text is derived from it. Bridges are numbered along the chain shown (N, C = ends).
# Experiment: in vitro
# Conditions: human, serum, 100% human serum (Sigma H1388), 0.2 mM (~0.7 mg/mL) DCP, 37°C, acetonitrile/0.1% formic acid extraction, LC-MS, UV 220 nm peak area normalized to 0 h (100%), three independent experiments
# Description: The DCPs were incubated in human serum (Sigma, cat# H1388) at a concentration of 0.2 mM (~ 0.7 mg/mL) at 37°C for 24 h. All samples (time 0 and 24 h) were flash frozen in liquid nitrogen at—20°C until sample preparation. To extract DCPs, 50 μL of sample was added to 100 μL of ice cold acetonitrile with 0.1% formic acid and mixed thoroughly with a Vortex mixer. The samples were then centrifuged at 14000 × rpm at 4°C for 30 minutes. 80 μL of the supernatant from each sample was diluted into 80 μL of water containing 0.1% formic acid and analyzed using LC-MS. From the HPLC UV trace (at 220 nm), the DCP peak area of the 24 h incubation sample was integrated and normalized to the DCP peak area of the 0 h incubation sample (set as 100%).
structure (smiles),measurement,value
"CC[C@H](C)[C@@H]1NC(=O)[C@H](CCCCN)NC(=O)[C@H](CO)NC(=O)[C@@H]2CSSC[C@@H]3NC(=O)[C@H](Cc4ccc(O)cc4)NC(=O)CNC(=O)[C@H](Cc4ccccc4)NC(=O)[C@H](CCC(N)=O)NC(=O)[C@H](CO)NC(=O)[C@H](CSSC[C@H](NC(=O)[C@H](CCC(=O)O)NC(=O)CNC(=O)[C@@H](N)C(C)C)C(=O)N[C@@H](C(C)C)C(=O)N[C@@H](CCCNC(=N)N)C(=O)NCC(=O)N[C@@H](CCCNC(=N)N)C(=O)N2)NC(=O)[C@H](CSSC[C@@H](C(=O)NCC(=O)O)NC(=O)[C@H](Cc2ccc(O)cc2)NC(=O)[C@H](CCCCN)NC(=O)[C@@H]2CCCN2C(=O)CNC(=O)[C@H](CCCCN)NC(=O)CNC3=O)NC(=O)[C@H](CO)NC1=O [Ig-AMP-1] (H-VGECVRGRCSKISCCSQFGYCGKGPKYCG-OH; disulfide 4-15, 9-21, 14-28)",remaining at 24 h,100%
